Results reported in the supplement of paper PMC9334596.
Several values for one entry are separate records, joined by “and”; a condition that tells them apart may be missing. Equal entries are not always repeated. Whole data set: some 5,300 compounds, median “PER2::LUC luminescence relative to vehicle control” near 0.96, cut for the highest 2% near 1.3. The list shows a part of the results.

Tested on: mPer2Luc MEF
Assay: PER2::LUC luminescence relative to vehicle control (fold of vehicle); higher = higher PER2::LUC reporter signal
Settings: 10 µM
Procedure, shortened: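 Compounds from commercial libraries were added at 10 μM to 384-well plates seeded 48 h earlier with ~3000 mPer2Luc mouse embryonic fibroblasts per well. The cells were kept in DMEM with 10% FBS at 37 °C and 5% CO2. Luminescence was read with ONE-Glo 24 h and 30 h after treatment, then an alamarBlue viability assay was run. Values are PER2::LUC luminescence relative to vehicle control, as fold change.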

SMILES | PER2::LUC luminescence (time after treatment 24 h) | PER2::LUC luminescence (time after treatment 30 h)
CC(C)CC(NC(=O)C(Cc1ccccc1)NC(=O)CNC(=O)C(C)NC(=O)C(N)Cc1ccc(O)cc1)C(=O)O (stereo unspecified) | 1.03 | 0.904
OC[C@@H]1CCCN2CCCC[C@H]12 | 1 | 0.945
COc1cc(OC)c2c(c1)O[C@H](c1ccc(OC)c(OC)c1)[C@@H](O)C2 | 1.03 | 0.964
C=CC[C@]1(O)CC[C@H]2[C@@H]3CCC4=CC(=O)CCC4=C3C=C[C@@]21C | 0.87 | 0.949
CC(Cc1ccc(O)cc1)NCC(O)c1cc(O)cc(O)c1 (stereo unspecified) | 1.02 and 0.816 | 0.984 and 1.04
C/C(=C\c1csc(C)n1)[C@@H]1C[C@@H]2O[C@]2(C)CCC[C@H](C)[C@H](O)[C@@H](C)C(=O)C(C)(C)[C@@H](O)CC(=O)O1 | 0.519 | 0.483
C=CCN=C=S | 0.561 | 0.919
C=C[C@H]1CN2CC[C@H]1C[C@@H]2[C@@H](O)c1ccnc2ccccc12 | 1.01 and 0.754 | 1.06 and 1.03
Cn1cnc(CCN)c1 | 0.826 | 0.66
C1CCc2nnnn2CC1 | 1.08 and 1 and 0.978 | 1 and 1.02 and 0.951
CNCC(O)c1ccc(O)cc1 (racemic) | 0.891 | 0.939
Cc1ccccc1-n1c(Cn2cnc3c(N)ncnc32)nc2cccc(C)c2c1=O | 1.08 | 0.983
CN(N=O)c1ccc(O)c(O)c1 | 0.808 | 0.976
C=CCN1CCC2(C)c3cc(O)ccc3CC1C2C (racemic) | 0.981 | 0.906
CCCN1CCC[C@@H]2Cc3nc(N)ncc3C[C@H]21 | 1.04 and 0.908 | 0.943 and 0.869
C[C@]12CC[C@@H](O)C[C@@H]1CC[C@@H]1[C@@H]2CC[C@]2(C)C(=O)CC[C@@H]12 | 0.936 | 0.913
COc1ccc2c(c1)[C@]13CCCC[C@@H]1[C@H](C2)N(C)CC3 | 0.702 and 0.654 and 0.636 | 0.83 and 0.727 and 0.743
CC1=NCCc2c1[nH]c1cc(O)ccc21 | 0.94 | 0.935
C=C[C@H]1CN2CC[C@H]1C[C@H]2[C@H](O)c1ccnc2ccccc12 | 0.985 and 0.929 | 0.986 and 1.01
Cc1cccc(C(C)c2c[nH]cn2)c1C (stereo unspecified) | 1.1 | 1.09

SMILES | PER2::LUC luminescence (time after treatment 24 h) | PER2::LUC luminescence (time after treatment 30 h)
C[C@H]1O[C@@H](O[C@H]2[C@@H](O)C[C@H](O[C@H]3[C@@H](O)C[C@H](O[C@H]4CC[C@@]5(C)[C@H](CC[C@@H]6[C@@H]5CC[C@]5(C)[C@@H](C7=CC(=O)OC7)[C@@H](O)C[C@]65O)C4)O[C@@H]3C)O[C@@H]2C)C[C@H](O)[C@@H]1O | 0.658 | 0.649
O=C1C=CC(=O)c2c(O)cccc21 | 0.933 | 0.779
CN(C(=O)Cc1ccc(Cl)c(Cl)c1)[C@H](CN1CCCC1)c1ccccc1 | 0.654 | 0.655
COC[C@H]1OC(=O)c2coc3c2[C@@]1(C)C1=C(C3=O)[C@@H]2CCC(=O)[C@@]2(C)C[C@H]1OC(C)=O | 0.877 | 0.875
CNNC | 0.952 | 0.931
Oc1cc2c(cc1O)[C@H]1c3ccccc3CN[C@@H]1CC2 | 0.855 | 0.8
Clc1cnc(Oc2ccc(Oc3ncc(Cl)cc3Cl)cc2)c(Cl)c1 | 1.07 | 1.01
CNCCc1ccc(O)c(O)c1 | 0.939 | 0.915
CC(C)[C@H](NC(=O)[C@H](CCC(=O)O)NC(=O)[C@H](Cc1ccccc1)NC(=O)[C@@H](C)NC(=O)[C@@H](N)Cc1ccc(O)cc1)C(=O)N[C@H](C(=O)NCC(N)=O)C(C)C | 1.11 | 0.98
NC(N)=NOCC[C@H](N)C(=O)O | 1.1 and 1.18 | 0.992 and 1.16
N[C@@H](Cn1oc(=O)[nH]c1=O)C(=O)O | 0.982 and 0.881 | 0.97 and 0.793
O=S(=O)(CC1CS1)c1ccc(Oc2ccccc2)cc1 (stereo unspecified) | 1.19 | 1.04
C[C@H](Cc1ccc(OCC(=O)O)cc1)NC[C@H](O)c1cccc(Cl)c1 | 0.906 | 0.891
CN1[C@@H]2CCC[C@H]1CC(=O)C2 | 0.978 | 0.882
C[N+]1(CCC(C(N)=O)(c2ccccc2)c2ccccc2)CCCCC1 | 1.05 | 1.16
S=C(NC1CCCCC1)N1CCC(c2cnc[nH]2)CC1 | 0.954 | 0.996
CN1[C@@H]2CC(O)C[C@H]1[C@@H]1O[C@@H]12 (stereo partly specified) | 1.02 and 1.19 | 1.02 and 1.1
O=C([O-])Cc1ccccc1.[Na+] | 0.961 | 0.91
CCN(CC)C(=O)NC1CC2c3cccc4[nH]cc(c34)CC2N(C)C1 (stereo unspecified) | 0.846 | 0.986
C[C@]12CC[C@H]3[C@@H](CC[C@]4(O)C[C@@H](O)CC[C@]34C=O)[C@@]1(O)CC[C@@H]2C1=CC(=O)OC1 | 0.934 | 0.862

SMILES | PER2::LUC luminescence (time after treatment 24 h) | PER2::LUC luminescence (time after treatment 30 h)
O=c1[nH]c2ccccc2n1CCCN1CCC(n2c(=O)[nH]c3cc(Cl)ccc32)CC1 | 0.941 | 0.864
O=C([O-])c1ccccc1-c1c2cc(Br)c(=O)cc-2oc2[c]([Hg+])c([O-])c(Br)cc12.[Na+].[Na+].[OH-] | 0.935 | 0.877
N#C/C(=C\c1cccc(O)c1)C(=O)O | 0.973 | 0.923
COC(=O)C1=CO[C@@H](C)[C@H]2CN3CC[C@]4(C(=O)Nc5ccccc54)[C@@H]3C[C@H]12 | 0.938 | 0.896
CC(C)[N+](C)(CCC(C(N)=O)(c1ccccc1)c1ccccc1)C(C)C | 0.541 | 0.804
CC(C)=CCCC1=CC(=O)c2c(O)ccc(O)c2C1=O | 1.21 | 0.954
CC1=C[C@@H]2c3cccc4[nH]cc(c34)C[C@H]2N(C)C1 | 0.969 | 0.856
C#C[C@]1(O)CC[C@H]2[C@@H]3CCC4=CC(=O)CC[C@]4(C)[C@H]3CC[C@@]21C | 0.91 | 1.09
C=CCN1CC[C@]23c4c5ccc(O)c4O[C@H]2/C(=N/NC(=O)c2ccccc2)CC[C@@]3(O)[C@H]1C5 | 1.13 | 0.994
CC(C)CC(N(C)C)C1(c2ccc(Cl)cc2)CCC1 (stereo unspecified) | 0.971 and 1.2 | 0.955 and 1.01
C[C@H]1CCC[C@@H](O)CCCCCc2cc(O)cc(O)c2C(=O)O1 | 0.9 | 0.909
COc1ccc2c3c1O[C@H]1CC(=O)C=C[C@@]31CCN(C)C2 | 1.03 | 0.993
NCC(CC(=O)O)c1ccc(Cl)s1 (racemic) | 1.04 | 0.985
COc1ccc2c(c1)c(CCN1CCOCC1)c(C)n2C(=O)c1cccc(Cl)c1Cl | 1.08 | 1.02
Nc1ncn[nH]1 | 0.997 | 0.956
COc1ccc(CN2CCNCC2)c(OC)c1OC | 1.01 | 0.903
c1ccc2c(N3CCNCC3)cccc2c1 | 0.719 | 0.663
CC[C@H]1CN2CC[C@H]1C[C@@H]2[C@@H](O)c1ccnc2ccc(OC)cc12 | 0.976 | 0.953
